According to patent US7374786B2 (priority 2004, dated 2008):
Values joined by “and” are separate entries in the source; they are usually repeats but may differ in a detail not shown here. Equal entries are not always repeated.

Test system: Citrus sinensis protoplast

With `Cc1cc2nc3c(=O)[nH]c(=O)nc-3n(C[C@H](O)[C@H](O)[C@H](O)CO)c2cc1C` [Riboflavin, riboflavin] the H2O2 equivalents was 2.3 µM and 2.0 µM.
